Assay results: the supplement of paper PMC6657886
MIC of clinical N. gonorrhoeae isolates (2015-2017) by agar dilution on GC agar with 1% IsoVitaleX (ranges not stated); higher = less susceptible. No active / inactive call per row; the paper counts benzylpenicillin above 1 and ceftriaxone above 0.125 mg/L as resistant (EUCAST). The method is stated for benzylpenicillin and ceftriaxone and assumed for the other drugs. '<=' is inferred from pile-ups at the end values. Isolates are numbered anew.

Key:
Experiment in all cases: Agar dilution on enriched GC agar; resistance determinants by microarray.
[1] = compound: CC1(C)S[C@@H]2[C@H](NC(=O)Cc3ccccc3)C(=O)N2[C@H]1C(=O)O [benzylpenicillin]
[2] = compound: CO/N=C(\C(=O)N[C@@H]1C(=O)N2C(C(=O)O)=C(CSc3nc(=O)c(O)nn3C)CS[C@H]12)c1csc(N)n1 [ceftriaxone]
[3] = compound: CC[C@H]1OC(=O)[C@H](C)[C@@H](O[C@H]2C[C@@](C)(OC)[C@@H](O)[C@H](C)O2)[C@H](C)[C@@H](O[C@@H]2O[C@H](C)C[C@H](N(C)C)[C@H]2O)[C@](C)(O)C[C@@H](C)CN(C)[C@H](C)[C@@H](O)[C@]1(C)O [azithromycin]
[4] = compound: CN(C)[C@@H]1C(O)=C(C(N)=O)C(=O)[C@@]2(O)C(O)=C3C(=O)c4c(O)cccc4[C@@](C)(O)[C@H]3C[C@@H]12 [tetracycline]
[5] = compound: CN[C@@H]1[C@H](O)[C@H](NC)[C@H]2O[C@@]3(O)C(=O)C[C@@H](C)O[C@H]3O[C@@H]2[C@H]1O [spectinomycin]

Test System	MIC [1] [mg/L]	MIC [2] [ng/mL]	MIC [3] [mg/L]	MIC [4] [mg/L]	MIC [5] [mg/L]
Neisseria gonorrhoeae isolate 340 (blaTEM plasmid: no, gyrA: wild type, mtrR promoter: wild type, parC: wild type, penA: ins345Asp, ponA: Pro421, porB: wild type, rpsJ: Met57, tetM plasmid: no)	0.12	4	0.12	0.5	8
Neisseria gonorrhoeae isolate 211 (blaTEM plasmid: no, gyrA: wild type, mtrR promoter: wild type, parC: wild type, penA: wild type, ponA: wild type, porB: wild type, rpsJ: wild type, tetM plasmid: no)	0.03	≤ 2	0.03	0.25	32
Neisseria gonorrhoeae isolate 125 (blaTEM plasmid: no, gyrA: wild type, mtrR promoter: -35delA, parC: Arg87, Glu91, penA: ins345Asp, ponA: wild type, porB: wild type, rpsJ: Met57, tetM plasmid: no)	0.12	≤ 2	0.12	0.5	32
Neisseria gonorrhoeae isolate 424 (blaTEM plasmid: no, gyrA: wild type, mtrR promoter: wild type, parC: wild type, penA: ins345Asp, ponA: wild type, porB: wild type, rpsJ: Met57, tetM plasmid: no)	0.25	≤ 2	0.03	0.5	4
Neisseria gonorrhoeae isolate 23 (blaTEM plasmid: no, gyrA: Thr91, Gly95, mtrR promoter: wild type, parC: wild type, penA: ins345Asp, ponA: wild type, porB: wild type, rpsJ: wild type, tetM plasmid: no)	≤ 0.015	≤ 2	0.06	0.5	32
Neisseria gonorrhoeae isolate 5 (blaTEM plasmid: no, gyrA: wild type, mtrR promoter: wild type, parC: wild type, penA: ins345Asp, ponA: wild type, porB: wild type, rpsJ: wild type, tetM plasmid: no)	0.06	≤ 2	0.015	0.5	32
Neisseria gonorrhoeae isolate 369 (blaTEM plasmid: no, gyrA: Phe91, Asp95, mtrR promoter: -35delA, parC: Arg87, Glu91, penA: ins345Asp, ponA: Pro421, porB: Asp120, Ala121, rpsJ: Met57, tetM plasmid: no)	0.06	8	0.5	4	16
Neisseria gonorrhoeae isolate 356 (blaTEM plasmid: no, gyrA: wild type, mtrR promoter: wild type, parC: wild type, penA: ins345Asp, ponA: wild type, porB: wild type, rpsJ: wild type, tetM plasmid: no)	0.5	≤ 2	0.008	0.12	32
Neisseria gonorrhoeae isolate 502 (blaTEM plasmid: no, gyrA: Phe91, Asn 95, mtrR promoter: -35delA, parC: wild type, penA: ins345Asp, ponA: Pro421, porB: Asn120, Asp121, rpsJ: wild type, tetM plasmid: no)	2	15	0.25	0.5	16
Neisseria gonorrhoeae isolate 484 (blaTEM plasmid: no, gyrA: wild type, mtrR promoter: -35delA, parC: wild type, penA: ins345Asp, ponA: wild type, porB: Asn120, Ala121, rpsJ: wild type, tetM plasmid: no)	≤ 0.015	≤ 2	0.015	0.06	8
Neisseria gonorrhoeae isolate 384 (blaTEM plasmid: no, gyrA: wild type, mtrR promoter: wild type, parC: wild type, penA: wild type, ponA: wild type, porB: wild type, rpsJ: wild type, tetM plasmid: no)	≤ 0.015	≤ 2	0.12	0.12	16
Neisseria gonorrhoeae isolate 348 (blaTEM plasmid: no, gyrA: wild type, mtrR promoter: wild type, parC: wild type, penA: wild type, ponA: wild type, porB: wild type, rpsJ: wild type, tetM plasmid: no)	≤ 0.015	≤ 2	0.25	0.25	32
Neisseria gonorrhoeae isolate 449 (blaTEM plasmid: no, gyrA: wild type, mtrR promoter: wild type, parC: wild type, penA: ins345Asp, ponA: wild type, porB: wild type, rpsJ: wild type, tetM plasmid: no)	0.06	4	0.03	0.06	4
Neisseria gonorrhoeae isolate 305 (blaTEM plasmid: no, gyrA: wild type, mtrR promoter: wild type, parC: wild type, penA: ins345Asp, ponA: wild type, porB: wild type, rpsJ: wild type, tetM plasmid: no)	0.12	8	0.12	0.5	16
Neisseria gonorrhoeae isolate 61 (blaTEM plasmid: no, gyrA: Phe91, Gly95, mtrR promoter: -35delA, parC: Arg87, Glu91, penA: ins345Asp, ponA: Pro421, porB: wild type, rpsJ: Met57, tetM plasmid: no)	0.25	≤ 2	0.03	0.5	16
Neisseria gonorrhoeae isolate 86 (blaTEM plasmid: no, gyrA: wild type, mtrR promoter: wild type, parC: wild type, penA: wild type, ponA: wild type, porB: wild type, rpsJ: wild type, tetM plasmid: no)	≤ 0.015	≤ 2	0.12	0.25	32
Neisseria gonorrhoeae isolate 65 (blaTEM plasmid: no, gyrA: Phe91, Asn95, mtrR promoter: wild type, parC: wild type, penA: ins345Asp, ponA: Pro421, porB: Asn120, Asp121, rpsJ: wild type, tetM plasmid: no)	2	15	0.25	4	16
Neisseria gonorrhoeae isolate 192 (blaTEM plasmid: no, gyrA: wild type, mtrR promoter: wild type, parC: wild type, penA: wild type, ponA: wild type, porB: wild type, rpsJ: wild type, tetM plasmid: no)	≤ 0.015	≤ 2	0.12	0.25	16
Neisseria gonorrhoeae isolate 47 (blaTEM plasmid: no, gyrA: wild type, mtrR promoter: wild type, parC: wild type, penA: wild type, ponA: wild type, porB: Asp120, Ala121, rpsJ: wild type, tetM plasmid: no)	≤ 0.015	≤ 2	0.12	0.12	16
Neisseria gonorrhoeae isolate 385 (blaTEM plasmid: yes, gyrA: Phe91, Asp95, mtrR promoter: wild type, parC: Arg87, Lys91, penA: ins345Asp, ponA: Pro421, porB: wild type, rpsJ: Met57, tetM plasmid: yes)	16	≤ 2	0.12	32	32
Neisseria gonorrhoeae isolate 74 (blaTEM plasmid: no, gyrA: wild type, mtrR promoter: wild type, parC: wild type, penA: ins345Asp, ponA: wild type, porB: wild type, rpsJ: wild type, tetM plasmid: no)	0.06	≤ 2	0.03	0.12	16
Neisseria gonorrhoeae isolate 90 (blaTEM plasmid: no, gyrA: Phe91, Gly95, mtrR promoter: wild type, parC: Arg87, Glu91, penA: ins345Asp, ponA: wild type, porB: Asp120, Ala121, rpsJ: Met57, tetM plasmid: no)	0.25	4	0.015	1	32
Neisseria gonorrhoeae isolate 127 (blaTEM plasmid: no, gyrA: wild type, mtrR promoter: wild type, parC: wild type, penA: ins345Asp, ponA: wild type, porB: wild type, rpsJ: wild type, tetM plasmid: no)	0.12	8	0.015	0.25	32
Neisseria gonorrhoeae isolate 445 (blaTEM plasmid: no, gyrA: Phe91, Asn95, mtrR promoter: -35delA, parC: wild type, penA: ins345Asp, ponA: Pro421, porB: Asn120, Asp121, rpsJ: Met57, tetM plasmid: no)	2	30	0.25	0.5	32
Neisseria gonorrhoeae isolate 448 (blaTEM plasmid: no, gyrA: wild type, mtrR promoter: wild type, parC: Ser87, Gly 91, penA: wild type, ponA: wild type, porB: wild type, rpsJ: wild type, tetM plasmid: no)	0.06	8	0.06	0.25	16
